{"source": "paper PMC4336329", "about": "(PLoS ONE, 2015)", "note": "Out of some 310,000 compounds screened, about 2,200 (0.71%) showed an effect of 50% or more. Effects have a minus sign here. This is one part of the list.", "data": [{"target": "human ether-à-go-go-related gene (hERG) potassium channel (human, UniProt Q12809)", "sequence (Q12809 whole entry, looked up)": "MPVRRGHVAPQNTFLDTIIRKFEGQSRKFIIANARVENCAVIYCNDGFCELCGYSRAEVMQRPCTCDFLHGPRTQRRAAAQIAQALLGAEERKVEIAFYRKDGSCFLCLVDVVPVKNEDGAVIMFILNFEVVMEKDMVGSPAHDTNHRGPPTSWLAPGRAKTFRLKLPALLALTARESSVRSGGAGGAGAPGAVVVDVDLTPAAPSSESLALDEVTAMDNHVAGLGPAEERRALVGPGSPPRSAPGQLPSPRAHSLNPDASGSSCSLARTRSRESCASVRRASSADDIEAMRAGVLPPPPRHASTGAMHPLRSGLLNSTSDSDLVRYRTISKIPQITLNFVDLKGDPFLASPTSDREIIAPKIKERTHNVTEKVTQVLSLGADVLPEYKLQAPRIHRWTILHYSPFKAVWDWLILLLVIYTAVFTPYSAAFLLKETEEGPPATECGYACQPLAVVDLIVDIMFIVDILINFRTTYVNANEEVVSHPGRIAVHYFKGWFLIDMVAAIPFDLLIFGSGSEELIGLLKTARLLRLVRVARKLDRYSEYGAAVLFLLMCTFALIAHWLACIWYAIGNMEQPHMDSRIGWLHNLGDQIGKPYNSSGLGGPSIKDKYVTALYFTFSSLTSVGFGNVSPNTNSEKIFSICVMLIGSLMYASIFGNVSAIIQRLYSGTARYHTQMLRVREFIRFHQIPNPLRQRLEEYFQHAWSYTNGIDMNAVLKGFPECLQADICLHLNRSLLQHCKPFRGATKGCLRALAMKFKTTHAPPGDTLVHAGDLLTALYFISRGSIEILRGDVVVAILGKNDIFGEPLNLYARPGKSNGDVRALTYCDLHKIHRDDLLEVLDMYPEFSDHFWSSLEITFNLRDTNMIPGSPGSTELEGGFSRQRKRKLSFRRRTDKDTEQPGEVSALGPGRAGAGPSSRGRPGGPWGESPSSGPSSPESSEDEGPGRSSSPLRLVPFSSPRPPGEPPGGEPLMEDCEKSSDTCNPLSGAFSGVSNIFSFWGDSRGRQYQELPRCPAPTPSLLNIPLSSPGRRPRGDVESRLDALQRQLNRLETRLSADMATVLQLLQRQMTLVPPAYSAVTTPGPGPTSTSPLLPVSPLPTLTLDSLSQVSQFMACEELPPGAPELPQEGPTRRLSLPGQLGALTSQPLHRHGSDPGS", "assay": "primary screen, population patch clamp on CHO cells stably expressing hERG", "units": {"hERG current change (%, negative = inhibition) at 1uM": "%"}, "values": [{"smiles": "Cc1ccc(NC(=O)Cn2cnc3c(nnn3Cc3ccc(F)cc3)c2=O)cc1", "hERG current change (%, negative = inhibition) at 1uM": 10.9}, {"smiles": "CCn1c(O)c(C#N)c(C)cc1=O", "hERG current change (%, negative = inhibition) at 1uM": 17.9}, {"smiles": "CCCNC(=O)c1ccc(N2CCC3(CC2)CC(c2ccc(Cl)cc2)=NO3)c([N+](=O)[O-])c1", "hERG current change (%, negative = inhibition) at 1uM": -10.6}, {"smiles": "Nc1cccc(N2C(=O)c3cccc4c(N)ccc(c34)C2=O)c1", "hERG current change (%, negative = inhibition) at 1uM": 7.7}, {"smiles": "COc1ccc(OC)c(S(=O)(=O)NCc2cccnc2)c1", "hERG current change (%, negative = inhibition) at 1uM": 2.5}, {"smiles": "CCOC(=O)C1CCCN(S(=O)(=O)c2c(C(=O)N3CCCCC3)c(C)n(C)c2C)C1", "note": "(stereo not drawn)", "hERG current change (%, negative = inhibition) at 1uM": 12.6}, {"smiles": "COc1ccc(OC)c(NC(=O)COC(=O)CCC2CCCC2)c1", "hERG current change (%, negative = inhibition) at 1uM": 6.85}, {"smiles": "CCOC(=O)C(=O)NCC(c1cccs1)S(=O)(=O)c1ccc(C)cc1", "note": "(stereo not drawn)", "hERG current change (%, negative = inhibition) at 1uM": -11}, {"smiles": "COc1ccc(OCc2cc(C(=O)NC3CCc4ccccc43)no2)c(Cl)c1", "note": "(stereo not drawn)", "hERG current change (%, negative = inhibition) at 1uM": 12.6}, {"smiles": "COc1cccc(-n2cnnc2SC(C)C(=O)NC2CCCC2)c1", "note": "(stereo not drawn)", "hERG current change (%, negative = inhibition) at 1uM": 1.93}, {"smiles": "Cc1ccc(Nc2nc(=O)c3cc([N+](=O)[O-])ccc3s2)cc1", "hERG current change (%, negative = inhibition) at 1uM": 16.6}, {"smiles": "COC(=O)CSc1nc2sc3c(c2c(=O)n1-c1ccccc1)CCN(C)C3", "hERG current change (%, negative = inhibition) at 1uM": 8.23}, {"smiles": "Cn1ccsc1=NC(=O)c1ccc(S(C)(=O)=O)c([N+](=O)[O-])c1", "hERG current change (%, negative = inhibition) at 1uM": 19.8}, {"smiles": "Cc1ccc(-c2cc(-c3ccccc3)cc(-c3ccccc3)[n+]2-c2ccccc2C(=O)O)cc1.[O-][Cl+3]([O-])([O-])[O-]", "hERG current change (%, negative = inhibition) at 1uM": 1.86}, {"smiles": "CCOC(=O)c1ccccc1NC(=O)N1CCn2c(C)ccc2C1CC", "note": "(stereo not drawn)", "hERG current change (%, negative = inhibition) at 1uM": 9.11}, {"smiles": "Cc1cccc(C)c1NC(=O)C1(NC(=O)C2CCCN2C(=O)OC(C)(C)C)CCCCC1", "note": "(stereo not drawn)", "hERG current change (%, negative = inhibition) at 1uM": -11.8}, {"smiles": "Cc1ccc(S(=O)(=O)Nc2ccc(=O)n(Cc3ccc(Cl)c(Cl)c3)c2)cc1", "hERG current change (%, negative = inhibition) at 1uM": -3.76}, {"smiles": "CCN(CC1COc2ccccc2O1)C(=S)Nc1ccc(F)cc1", "note": "(stereo not drawn)", "hERG current change (%, negative = inhibition) at 1uM": 6.86}, {"smiles": "CC(=O)N(C)c1ccc(OCC(O)CN(c2ccccc2C)S(=O)(=O)c2ccc(C)cc2)cc1", "note": "(stereo not drawn)", "hERG current change (%, negative = inhibition) at 1uM": 12.5}, {"smiles": "C=CCN(C(=O)c1csnn1)C(C(=O)NCc1ccccc1)c1cccs1", "note": "(stereo not drawn)", "hERG current change (%, negative = inhibition) at 1uM": 6.72}, {"smiles": "Oc1ccc[n+](/C=C\\c2ccccc2)c1.[Br-]", "hERG current change (%, negative = inhibition) at 1uM": -0.393}, {"smiles": "CN(C)S(=O)(=O)N1CCN(CC(O)COc2ccc(C(=O)c3ccccc3)cc2)CC1", "note": "(stereo not drawn)", "hERG current change (%, negative = inhibition) at 1uM": -18.7}, {"smiles": "O=c1c(C(c2nnnn2C2CCCCC2)N2CCCCC2)coc2ccc(Cl)cc12", "note": "(stereo not drawn)", "hERG current change (%, negative = inhibition) at 1uM": 5.59}, {"smiles": "Cc1cc(NC(=O)CSc2c3c(nc4ccccc24)CCC3)no1", "hERG current change (%, negative = inhibition) at 1uM": 4.4}, {"smiles": "CCOC(=O)c1c(CN(CC)CC)n(-c2ccccc2)c2ccc(O)cc12", "hERG current change (%, negative = inhibition) at 1uM": -45.6}, {"smiles": "CCCCCCn1cc(C(=O)O)c(=O)c2cc(F)c(N3CCN(C)CC3)cc21", "hERG current change (%, negative = inhibition) at 1uM": 10.8}, {"smiles": "Cc1ccc(Cn2c(N3CCCCCC3)nc3c2c(=O)[nH]c(=O)n3C)cc1", "hERG current change (%, negative = inhibition) at 1uM": 2.45}, {"smiles": "CCc1nn(C(C)C(=O)NCc2ccc(Cl)cc2)c(=O)c2cc3occc3n12", "note": "(stereo not drawn)", "hERG current change (%, negative = inhibition) at 1uM": -5.89}, {"smiles": "CCOC(=O)N1CCC(Nc2nc(OC)nc(OC)n2)CC1", "hERG current change (%, negative = inhibition) at 1uM": 8.42}, {"smiles": "O=C(CN1CCN(c2ccccn2)CC1)NC1CCCCC1", "hERG current change (%, negative = inhibition) at 1uM": 3.79}, {"smiles": "CSCC(=O)NC1CCCN(C2Cc3ccccc3C2)C1", "note": "(stereo not drawn)", "hERG current change (%, negative = inhibition) at 1uM": 8.45}, {"smiles": "Cl.O=C(/C=C/c1ccc(Br)o1)NCCCN1CCOCC1", "hERG current change (%, negative = inhibition) at 1uM": 7.21}, {"smiles": "CCOc1ccccc1NC(=O)Nc1ccc(OC)nc1", "hERG current change (%, negative = inhibition) at 1uM": 10}, {"smiles": "CCNC(=S)N1CCC(NC(=O)c2ccco2)CC1", "hERG current change (%, negative = inhibition) at 1uM": 9.57}, {"smiles": "CCn1nc(C)c(Oc2ccccc2O)c1C", "hERG current change (%, negative = inhibition) at 1uM": 12.6}, {"smiles": "Cc1ccc(S(=O)(=O)N/N=c2\\sc3ccccc3n2C)cc1", "hERG current change (%, negative = inhibition) at 1uM": 2.88}, {"smiles": "CN(CC1CCOCC1)C(=O)CC1C(=O)NCCN1Cc1ccc(F)c(F)c1", "note": "(stereo not drawn)", "hERG current change (%, negative = inhibition) at 1uM": 12.5}, {"smiles": "CC(C)C(NC(=O)c1ccccc1)C(=O)N/N=C\\c1ccco1", "note": "(stereo not drawn)", "hERG current change (%, negative = inhibition) at 1uM": 16.7}, {"smiles": "O=C(NC(=S)N1CCN(C(c2ccccc2)c2ccccc2)CC1)c1ccc(S(=O)(=O)N2CCOCC2)cc1", "hERG current change (%, negative = inhibition) at 1uM": -3.63}, {"smiles": "c1ccc(-c2nccc(-c3ccco3)n2)nc1", "hERG current change (%, negative = inhibition) at 1uM": 1.91}, {"smiles": "Cc1cccc(-c2nnc3sc(-c4ccccc4C)nn23)c1", "hERG current change (%, negative = inhibition) at 1uM": 11.6}, {"smiles": "O=C(c1cc(=O)c2ccccc2o1)N1CCN(c2cccc(Cl)c2)CC1", "hERG current change (%, negative = inhibition) at 1uM": -9.23}, {"smiles": "COc1ccccc1-n1c(=O)c2c3c(sc2n2c(=S)[nH]nc12)CCC3", "hERG current change (%, negative = inhibition) at 1uM": 8.1}, {"smiles": "COc1ccc(C(C)=O)cc1COC(=O)c1c(C)nn(-c2ccccc2)c1C", "hERG current change (%, negative = inhibition) at 1uM": 8.11}, {"smiles": "CCCC(c1nnnn1CC(=O)OCC)N(Cc1cc2ccc(C)cc2[nH]c1=O)C1CCCC1", "note": "(stereo not drawn)", "hERG current change (%, negative = inhibition) at 1uM": 9.02}]}]}
